# The list shows a part of the results.
# How the values were obtained:
# Test in all cases: glycan array binding signal (z-score within array); higher = stronger binding
# Details in all cases: glycan notation: IUPAC condensed, linker removed
# [1] = target: Neu5Ac(a2-8)Neu5Ac(a2-3)[GalNAc(b1-4)]Gal(b1-4)Glc
# In short: (§1)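 Negative Z-scores can be read as non-binding. The Z-score is calculated within each array and then averaged across arrays of one protein sequence at different concentrations or buffers and across linkers. Arrays, 3228 in all, were curated from the Consortium for Functional Glycomics database and kept only where the protein sequence was available.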
# [2] = target: Neu5Ac(a2-8)Neu5Ac(a2-8)Neu5Ac
# In short: as §1
# [3] = target: Neu5Ac(a2-8)Neu5Ac(a2-8)Neu5Ac(a2-3)Gal(b1-4)Glc
# In short: as §1
# [4] = target: Neu5Ac(a2-8)Neu5Ac(a2-8)Neu5Ac(a2-3)[GalNAc(b1-4)]Gal(b1-4)Glc
# In short: as §1
# [5] = target: Neu5Ac(a2-8)Neu5Ac(a2-8)Neu5Ac(a2-8)Neu5Ac(a2-3)[GalNAc(b1-4)]Gal(b1-4)Glc
# In short: as §1
# Neu5Ac(b1-6)GalNAc = target: Neu5Ac(b1-6)GalNAc
# In short: as §1
# [6] = target: Neu5Ac(b2-6)Gal(b1-4)GlcNAc
# In short: as §1
# [7] = target: Neu5Ac9Ac(a2-6)Gal(b1-4)GlcNAc
# In short: as §1
# [8] = target: Neu5Gc(a2-3)Gal(b1-3)GlcNAc
# In short: as §1
# [9] = target: Neu5Gc(a2-3)Gal(b1-3)[Fuc(a1-4)]GlcNAc
# In short: as §1
# Neu5Gc(a2-3)Gal(b1-4)Glc = target: Neu5Gc(a2-3)Gal(b1-4)Glc
# In short: as §1
# [10] = target: Neu5Gc(a2-3)Gal(b1-4)GlcNAc
# In short: as §1
# [11] = target: Neu5Gc(a2-3)Gal(b1-4)[Fuc(a1-3)]GlcNAc
# In short: as §1
# [12] = target: Neu5Gc(a2-6)Gal(b1-4)GlcNAc
# In short: as §1
# Neu5Gc(a2-6)GalNAc = target: Neu5Gc(a2-6)GalNAc
# In short: as §1
binder,measurement,setting,value
MIG/CXCL9 (Homo sapiens) (protein) TPVVRKGRCSCISTNQGTIHLQSLKDLKQFAPSPSCEKIEIIIATLKNGVQTCLNPDSADVKELIKKTEKQVSQKKKQKNGKKHQKKKVLKVRKSQRSRQKKTT,glycan array binding signal (z-score),[1],-0.12
same,glycan array binding signal (z-score),[2],-0.218
same,glycan array binding signal (z-score),[3],-0.321
same,glycan array binding signal (z-score),[4],-0.353
same,glycan array binding signal (z-score),[5],-0.245
same,glycan array binding signal (z-score),Neu5Ac(b1-6)GalNAc,-0.402
same,glycan array binding signal (z-score),[6],-0.209
same,glycan array binding signal (z-score),[7],-0.239
same,glycan array binding signal (z-score),[8],-0.05
same,glycan array binding signal (z-score),[9],-0.4
same,glycan array binding signal (z-score),Neu5Gc(a2-3)Gal(b1-4)Glc,-0.347
same,glycan array binding signal (z-score),[10],-0.249
same,glycan array binding signal (z-score),[11],-0.288
same,glycan array binding signal (z-score),[12],-0.309
same,glycan array binding signal (z-score),Neu5Gc(a2-6)GalNAc,-0.306
